Results are given in words; binding and its absence hold for the method and conditions named. For part of these data: Binding seen in cells or lysates may run through a third protein. Some entries that bind do so weakly or less than the wild type. Sequences can lack the tags named with a protein.

In test [1] the target is HAdV-A12 E1A C-terminal PXLXP motif, wildtype (residues 95-105), LexA DBD fusion (human adenovirus A12 (HAdV-A12)) (UniProt P03259). Put plainly: two-hybrid.
Test [2] has as its target HAdV-A12 E1A N-terminal PXLXP motif, wildtype (residues 80-90), LexA DBD fusion (human adenovirus A12 (HAdV-A12)) (UniProt P03259). Nature of the test: two-hybrid.
For test [3], the target named is HAdV-A12 E1A CR2 (residues 80-125), LexA DBD fusion (human adenovirus A12 (HAdV-A12)) (UniProt P03259). Put plainly: two-hybrid.
In test [4] the target is HAdV-E4 E1A CR2 (residues 91-145), LexA DBD fusion (human adenovirus E4 (HAdV-E4)) (UniProt P10407). Put plainly: two-hybrid.
Test [5] has as its target GFP-tagged full-length HAdV-A12 E1A (human adenovirus A12 (HAdV-A12)) (UniProt P03259). Put plainly: co-IP.
Test [6] deals with GFP-tagged full-length HAdV-E4 E1A (human adenovirus E4 (HAdV-E4)) (UniProt P10407). Put plainly: co-IP.

B1: BS69 MYND domain (residues 427-602) fused to a B42 activation domain (domain or fragment, UniProt Q15326 427-602)
chain: MPQPIEKVSVSTQTKKLSASSPRMLHRSTQTTNDGVCQSMCHDKYTKIFNDFKDRMKSDHKRETERVVREALEKLRSEMEEEKRQAVNKAVANMQGEMDRKCKQVKEKCKEEFVEEIKKLATQHKQLISQTKKKQWCYNCEEEAMYHCCWNTSYCSIKCQQEHWHAEHKRTCRRKR
As to B1, the binding entry in test [1] is recorded as “binds”; in test [2] it was “binds”; in test [3], “binds”; in test [4] it was “no binding”.

B2: HA-tagged BS69 MYND domain (residues 427-602) (domain or fragment, UniProt Q15326 427-602)
chain: MPQPIEKVSVSTQTKKLSASSPRMLHRSTQTTNDGVCQSMCHDKYTKIFNDFKDRMKSDHKRETERVVREALEKLRSEMEEEKRQAVNKAVANMQGEMDRKCKQVKEKCKEEFVEEIKKLATQHKQLISQTKKKQWCYNCEEEAMYHCCWNTSYCSIKCQQEHWHAEHKRTCRRKR
B2: the binding result in test [5] is listed as “binds”; in test [6], “no binding”.

The record behind these values is publication PMC6315623.
